In all, about 1,100 sequences were measured (“thermal melting temperature (Tm) of peptide-HLA complex”: median about 58, lowest 2% from about 42 on). The list shows a part of the results.
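Also: cell lysates heated 10 min at 37–73 °C, remaining pHLA pulled down with pan-class I antibody, peptides quantified by DIA-MS versus 37 °C, Tm where half the complex is lost.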

This assay has as its target HLA-A*02:01. Description: thermal melting temperature (Tm) of peptide-HLA complex; higher = more thermostable pHLA complex. The note with it: C1R-A*02:01.
The sequence SLYSQVHQI registered a thermal melting temperature of 60.2 °C.
SLYDQAEKLVS: the thermal melting temperature was determined as 58.7 °C.
Regarding ALAAPDIVPAL, the thermal melting temperature amounted to 59.8 °C.
With TLDDKKVYL, the thermal melting temperature stood at 55.6 °C.
For GLSTEGIYRV, the thermal melting temperature is 60.9 °C.
In turn, ILYPKTLFLL returned a thermal melting temperature of 61.9 °C.
In the case of HLDVQPAAL, the thermal melting temperature is 49.2 °C.
For YLGDVSERV, the thermal melting temperature worked out at 59.1 °C.
The result for KLFNEFIQL reads 57.8 °C.
Take SLTSKIPAL: the thermal melting temperature is 55.6 °C.
On to KIFEMGPVFTL, for which the thermal melting temperature was 52.7 °C.
In the case of SLEEFVHSL, the thermal melting temperature is 47.6 °C.
Consider GLEEYLEKV, for which the thermal melting temperature was 59.6 °C.
The result for LLDPNVKSIFV reads 62.2 °C; that for YLSEKVLAA, 57.8 °C; that for HLFDAFVSV, 63.1 °C.
The result for RLIEETISI reads 58.1 °C.
To ALAEIAKAEL belongs 59.1 °C.
Sequence YLDGHLITTV yielded a thermal melting temperature of 59.8 °C.
FLVDGPRVQL had a thermal melting temperature of 57.1 °C.
In turn, SLDERPVAV yielded a thermal melting temperature of 61.2 °C.
On to SISAGIPKV, for which the thermal melting temperature amounted to 57.4 °C.
Turning to LLDVTPLSL, the thermal melting temperature was 53.1 °C.
In the case of ILEEKGLSQV, the thermal melting temperature stood at 59.1 °C.
Regarding NLAEVVERV, the thermal melting temperature was determined as 61.1 °C.
Consider VLYEKDIQLF, for which the thermal melting temperature was 48.3 °C.
RLLDGAFKL came in with a thermal melting temperature of 49.9 °C.
As to GLIDRQVTV, the thermal melting temperature stood at 60.8 °C.
Sequence VLEDPVHAV displayed a thermal melting temperature of 48.5 °C.
SLDSQKFVTV: the thermal melting temperature was found to be 48 °C.
To FVDGLTFKV belongs 54.2 °C.
The sequence GMYIFLHTV displayed a thermal melting temperature of 60.3 °C.
To STYEGKPIFL belongs 56.8 °C; to IIRENSISL, 58.5 °C.
For FLQEGDLISA, the thermal melting temperature was found to be 59.1 °C.
For VLLKARLVPA, the thermal melting temperature came out at 59.7 °C.

Source of the values: the supplement of paper PMC7726561.
